# Measured values reported in PubChem BioAssay AID624296 (National Center for Advancing Translational Sciences (NCATS), 2012).
# Screen size: about 350,000 compounds; about 9,900 (2.8%) were called active. Inconclusive means that the source gave no clear call. Such entries were picked first, then a sample of the others. The call rests on the fitted dose curve; in most records, active means well fitted activation curve with a large enough effect; inconclusive means small, poorly fitted or top-dose-only effect; inactive means no such curve, though single readings can be large or run the other way. No potency is given beside an inconclusive call; the fits are too rough.
# Experiment: A quantitative high throughput screen for small molecules that induce DNA re-replication in MCF 10a normal breast cells. Further: nearly all actives have a fitted effect of over 50% in size. On activity, positive = re-replication: % of control where 0% means no effect.
# Details: MCF 10A DNA re-replication, Hoechst nuclear intensity, 48 h; activity, positive = re-replication: at 46.1 µM (top of the series)
# Potency means the concentration at half of the fitted maximal effect; tags describe the fitted curve by direction and shape.
SMILES,Potency,"activity, positive = re-replication"
CCOC(=O)c1c(C)oc2c1c(C(c1cccnc1)N1CCCCC1)c(O)c1ccccc12 (configuration not stated),"inconclusive [activator, single point]",
O/N=C(\c1ccc(Cl)cc1)c1ncc(C(F)(F)F)cc1Cl,"inconclusive [activator, partial curve, poor fit]",
Cc1cccc(NC(=O)CN2CCN(C(=O)c3ccc(-c4nc5ccccc5s4)o3)CC2)c1C,"inconclusive [activator, single point]",
CCOC(=O)CCc1c(C)nc(SCCCn2c(=O)[nH]c3ccccc32)c(C#N)c1C,"inconclusive [activator, partial curve, poor fit]",
Cc1cccc2cc(/C=N/NC(=O)[C@H]3C[C@@H]3c3ccccc3)c(Cl)nc12,"inconclusive [activator, partial curve, poor fit]",
C#CC1(O)CCCC2C3CCC4CC(OC(C)=O)CCC4(C)C3C(=O)CC21C (configuration not stated),"inconclusive [activator, partial curve, poor fit]",
O=C(NNC(=S)NCc1ccco1)c1ccc(Cl)s1,,inactive: 10.8%
Cc1ccccc1NC(=S)NC(=O)/C=C/c1ccco1,,inactive: 10.2%
CCc1noc(C)c1C(=O)Nc1nnc(C(CC)CC)s1,,inactive: 9.05%
O=C1CCNc2ccc(-c3ccccc3)cc21,active: 23.1 µM,
COc1cc(-c2noc(C)c2-c2ccc3[nH]ccc3c2)cc(OC)c1OC,"inconclusive [activator, full curve, poor fit]",
O=C(NCc1ccccc1)N1CCCC1,,inactive: -5.71%
Cc1c(C(=O)Nc2cccc(Cl)c2)oc2ccc(S(=O)(=O)N3CCC4(CC3)OCCO4)cc12,active: 5.8 µM,
Cc1nc2scc(C)n2c(=O)c1S(=O)(=O)NCCc1ccc(Cl)cc1,"inconclusive [activator, single point]",
C[C@@]12C(=O)Nc3ccccc3C(=O)N1[C@H]1c3cc(Cl)ccc3OC[C@@H]1[C@@H]2c1ccccc1,active: 7.31 µM,
CCOc1c(Br)cc(CNC2CCCCCCC2)cc1OC,active: 10.3 µM,
Cc1cccc(NC(=O)NCCN2CCN(c3ccccc3)CC2)c1C,"inconclusive [activator, partial curve, poor fit]",
CCN(c1ccccc1)S(=O)(=O)c1ccc(N)c(OC)c1,active: 18.4 µM,
Cc1c(OCC(=O)C(C)(C)C)ccc2c(-c3ccccc3)cc(=O)oc12,"inconclusive [activator, partial curve, poor fit]",
COc1ccc2[nH]c3c(N4CC(C)OC(C)C4)ncnc3c2c1 (configuration not stated),,inactive: -1.13%
CCN(CC)S(=O)(=O)c1cc(NC(=O)C(C)N2CCc3ccccc32)ccc1C (configuration not stated),"inconclusive [activator, partial curve]",
CC1=C/C(=C/N(C)c2ccccc2)C(=O)S1,"inconclusive [activator, single point]",
COC(=O)c1cc(NC(=O)/C=C/c2ccc3c(c2)OCO3)cc(C(=O)OC)c1,"inconclusive [activator, single point]",

SMILES,Potency,"activity, positive = re-replication"
CC(C)C(=O)NC(=S)Nc1nnn(C)n1,,inactive: 9.58%
COCc1c(C#N)c(NCc2cc(OC)c(OC)c(OC)c2)nc(C)c1[N+](=O)[O-],"inconclusive [activator, partial curve, poor fit]",
CCOC(=O)C1=C(C)NC(C)=C(C(=O)OCC)C1/C=C/c1ccccc1,"inconclusive [activator, partial curve, poor fit]",
CC(C)C1N=C(c2ccc3c(c2)OCO3)CC(c2ccccc2O)N1 (configuration not stated),active: 20.6 µM,
COc1ccccc1[C@@H]1C(c2cccc(Cl)c2)=NN(c2ccccc2)[C@H]1C(=O)N1CCOC1=O,"inconclusive [activator, full curve, poor fit]",
CCOCCCn1c(=NC(=O)c2cccs2)c(C#N)cc2c(=O)n3ccccc3nc21,"inconclusive [activator, single point]",
C/C=C1\COC(C(=O)NCc2cccc(OC)c2OC)(C(F)(F)F)C=C1C=C1CCCCC1 (configuration not stated),"inconclusive [activator, full curve, poor fit]",
CC(C)(C)CC(C)(C)SSc1n[nH]c(=S)s1,,inactive: -7.41%
O=C(COC(=O)c1cc(Br)ccc1O)Nc1cccnc1Cl,,inactive: 15.9%
Cc1ccc(C)c(-c2csc(N/N=C/c3ccco3)n2)c1,"inconclusive [activator, single point]",
CCn1c(SCC(=O)Nc2ccccc2-c2ccccc2)nnc1-c1ccoc1C,"inconclusive [activator, partial curve, poor fit]",
O=C1Nc2ccc(Br)cc2C1=C1CCCCC1,active: 18.4 µM,
COc1cccc(-c2nc(N3CCCC3)c3ccccc3n2)c1O,"inconclusive [activator, partial curve, poor fit]",
COc1ccc2[nH]cc(CCCN3C(=O)c4ccccc4C3=O)c2c1,"inconclusive [activator, partial curve, poor fit]",
O=S(=O)(Nc1ccc(Cc2ccncc2)cc1)c1ccc(Br)s1,"inconclusive [activator, partial curve, poor fit]",
Cn1c(N)c(C(=O)Nc2c(Cl)cccc2Cl)sc1=S,"inconclusive [activator, single point]",
Cc1ccc(S(=O)(=O)N(C)Cc2nc(-c3ccccn3)no2)cc1,,inactive: -0.759%
CC1CCN(c2ccccc2NC(=O)c2ccc(N3CCOCC3)c([N+](=O)[O-])c2)CC1,active: 16.4 µM,
Cn1c(SCC(=O)NC2CCS(=O)(=O)C2)nc2ccccc21 (configuration not stated),"inconclusive [activator, full curve, poor fit]",
Cc1cccc(N2CCN(C(=O)[C@H](C)N3C(=O)C4CC=CCC4C3=O)CC2)c1C (some centres not stated),,inactive: 18.4%
O=C(CCC1(C(=O)O)CCC(=O)NC1)NCc1ccccc1 (configuration not stated),"inconclusive [activator, single point]",
CCN1C(=O)[C@H]2[C@@H](c3ccc(SC4CCCCC4)cc3)N3CCCC[C@@]3(C(=O)OC)[C@H]2C1=O,"inconclusive [activator, full curve, poor fit]",
COc1ccccc1-c1cc(-c2ccccc2)nc(SCC(=O)O)c1C#N,,inactive: 1.04%

SMILES,Potency,"activity, positive = re-replication"
O=C(CC(c1ccc(F)cc1)c1ccco1)Nc1nccs1 (configuration not stated),,inactive: 12.3%
CCOc1ccc(NS(=O)(=O)c2ccc(OC)c(NC(=O)c3ccc4c(c3)OCCO4)c2)cc1,"inconclusive [activator, partial curve]",
C=CCNc1nc(N)c(C(=C(C#N)C#N)c2ccc(Br)cc2)s1,"inconclusive [activator, partial curve, poor fit]",
Cc1ccc(N=C2S/C(=C\c3cn(CC(=O)O)c4ccccc34)C(=O)N2C)cc1,,inactive: 10.2%
CC(=O)c1ccc(S(=O)(=O)Oc2ccc(-c3ccc(C(=O)O)cc3)cc2)cc1,,inactive: 7.4%
CCN1C[C@@H]2[C@@H]3C(=O)N(Cc4ccccc4)C(=O)[C@@H]3[C@](C)(C1=O)N2C(=O)c1ccc(Cl)cc1,,inactive: -1.01%
O=C(Cn1nc(-c2ccccc2)nc1-c1ccccc1)OC1CCCCC1,"inconclusive [activator, single point]",
CCOc1ccccc1N/C=C(\C#N)c1nc2ccccc2n1C,"inconclusive [activator, partial curve, poor fit]",
COc1cc2cc(Oc3ccc4ccc(=O)oc4c3)c(=O)oc2cc1O,"inconclusive [activator, single point]",
COc1c(Br)cc(Br)cc1/C=N/NC(=O)c1cccnc1,"inconclusive [activator, partial curve, poor fit]",
OC(COc1ccc2ccccc2c1)CN1CCN(c2ccc(F)cc2)CC1 (configuration not stated),"inconclusive [activator, single point]",
O=C(Nc1nc(-c2ccccc2)cs1)Nc1ccc(F)cc1F,"inconclusive [activator, partial curve, poor fit]",
CC(=O)Nc1ccc(NS(=O)(=O)C(F)(F)F)cc1,,inactive: 9.85%
Cc1ccc(Nc2nc3nonc3[nH]c2=O)cc1Cl,"inconclusive [activator, partial curve, poor fit]",
Cc1cc(N2CCN(S(=O)(=O)c3ccc(Cl)c(Cl)c3)CC2)c2ccccc2n1,"inconclusive [activator, single point]",
Cc1cc(C)c(S(=O)(=O)N2CCCC(C(=O)NCCC3=CCCCC3)C2)c(C)c1 (configuration not stated),"inconclusive [activator, single point]",
CC(C)[C@H](NC(=O)c1cccc(S(=O)(=O)N2CCOCC2)c1)C(=O)OCC(=O)Nc1cccc(Br)c1,"inconclusive [activator, single point]",
Clc1cccc(OCCN2CCN(CCOc3cccc(Cl)c3)CC2)c1,"inconclusive [activator, single point]",
CC[C@@]1(c2ccccc2OC)ON(c2ccccc2C(F)(F)F)C1=O,"inconclusive [activator, single point]",
CCOc1cc(CNCCc2ccccc2)ccc1OCC(=O)NC(C)(C)C,"inconclusive [activator, single point]",
CN(CC(=O)Nc1ccc(F)c(Cl)c1)S(=O)(=O)c1ccc2c(c1)n(C)c(=O)c(=O)n2C,,inactive: -3.1%
